We go through 27 compounds from PubChem BioAssay AID485344 (National Center for Advancing Translational Sciences (NCATS), 2010).

Among all 340,000 compounds or so, about 6,900 (2%) were called active. Rule as the data show it: active = inhibition above about 30%; inactive = below that, where a call was filed. The entries are a selection whose mix differs from that of the whole data set. Entries without a call were filed so in the source.

By inhibition is commonly meant the change of the read-out against control, counted positive when it falls.

The experiment has as its target D(2) dopamine receptor (Homo sapiens) (UniProt P14416). As to the kind of experiment: HTS Assay for Allosteric Antagonists of the Human D2 Dopamine Receptor: Primary Screen for Antagonists. Also: 0% is about no effect. The settings on record: HEK293 TREx D2 cells, calcium flux, dopamine EC80; at 10 µM; stronger effect = higher value. The gist of the method: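 Cells plated overnight at 30 C with tetracycline; no-wash calcium dye, 30–90 min RT; 10 s baseline; compound pinned; 180 s read; EC80 dopamine added; another 180 s read.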
Chain of UniProt P14416 (P14416 whole entry, looked up): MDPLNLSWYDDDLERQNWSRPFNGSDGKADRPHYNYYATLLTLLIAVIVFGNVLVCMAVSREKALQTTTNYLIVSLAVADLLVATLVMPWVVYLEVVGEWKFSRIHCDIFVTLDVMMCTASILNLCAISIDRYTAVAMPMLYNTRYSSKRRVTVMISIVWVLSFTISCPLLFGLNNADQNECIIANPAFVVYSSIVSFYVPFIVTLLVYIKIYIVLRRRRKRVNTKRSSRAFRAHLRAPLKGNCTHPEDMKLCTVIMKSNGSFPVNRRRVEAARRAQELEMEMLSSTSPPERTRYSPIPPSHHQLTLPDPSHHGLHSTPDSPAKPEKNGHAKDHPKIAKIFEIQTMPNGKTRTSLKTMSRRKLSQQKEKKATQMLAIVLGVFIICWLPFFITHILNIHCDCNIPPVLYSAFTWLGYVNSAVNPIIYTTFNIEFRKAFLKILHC
(A change in cytosolic calcium serves as a functional read-out for many receptors and channels.)
Consider `COCCCNC(=O)C1CCN(c2nc3ccc(Cl)cc3[nH]2)CC1`, for which the inhibition was -13.7%. Next, `CC1=C(c2ccc(C(C)C)cc2)S(=O)(=O)NC1=NCc1ccc(Cl)cc1`: -21.9%; `Cc1ccc(CNC(=O)CCCc2nnc3n(CC(C)C)c(=O)c4sccc4n23)cc1`: 13.8%; `CC1CCN(CCOc2cc(Cl)ccc2Cl)CC1`: active: 72.2%.

With `Cc1sc2ncn(CC(=O)N3CCN(c4ccccc4)CC3)c(=O)c2c1S(=O)(=O)N1CCC(C)CC1`, the inhibition was -13%. Next, `CCCN(CCC)C(=O)Cn1c(=O)n(-c2ccc(Cl)c(Cl)c2)c(=O)c2c(C)c(C(=O)N(C)C)sc21`: -3.72%; `CCOc1ccc(OCC)c(NC(=O)C2CCCN(S(=O)(=O)c3ccc(C)cc3)C2)c1` (configuration not stated): 0.658%. For `CCOc1ccc(-c2nnc(SCC(=O)N(CC)c3cccc(C)c3)o2)cc1` the value was 23.4%; for `O=C(Cn1c(=O)n(-c2ccccc2Cl)c(=O)c2sc3ccccc3c21)NC1CCCC1`, -13.3%. Next, `COc1ccccc1CNC(=O)CSc1cc(C)[nH]c(=O)n1`: -2.26%.

As for `Cc1ccn2c(Nc3ccc4c(c3)OCCO4)c(-c3ccc(N(C)C)cc3)nc2c1`, the inhibition is -3.04%. With `Cc1ccc(C(=O)Nc2oc(-c3ccccc3)cc2C#N)cc1`, the inhibition was active: 30.5%. For `O=C(NCc1ccccc1Cl)c1ccc(-n2cnc3cccnc32)cc1` the value was -1.49%. For `Cn1c(/C(C#N)=C/c2ccc(C(F)(F)F)cc2)nc2ccccc21` the value was -6.07%; for `CCOc1ccccc1NC(=O)Cn1nc(N2CCN(c3ccccc3)CC2)ccc1=O`, 1.23%; for `Cc1ccc(CNC(=O)CSCc2nc(-c3cccc(C)c3)oc2C)cc1`, -15.5%.

As for `Cc1cn2c(=O)c(S(=O)(=O)NCc3ccc(F)cc3)c(C)nc2s1`, the inhibition is -9.19%. For `O=C(CCC1N=C2c3ccccc3N=C(SCC(=O)NCCc3ccccc3)N2C1=O)NCc1ccc(F)cc1` (configuration not stated) the value was 18.1%; for `CCC(NC(=O)Nc1cccc(C)c1)c1c(-n2cccc2)sc2c1CCN(C)C2` (configuration not stated), 5.83%; for `Cc1ccc(OCC(=O)Nc2cccc3ccc(C)nc23)c(C)c1`, 21.5%. On to `Cc1cccc(NC(=O)COc2ccc3oc4c(c3c2)CCCC4)c1`, for which the inhibition is -3.55%.

With `O=C(CCc1nc(-c2cccs2)no1)Nc1ccc([N+](=O)[O-])cc1`, the inhibition was -9.49%.

`O=C(NCCS(=O)(=O)N1CCN(c2ccccc2F)CC1)C1CC(=O)N(c2ccc(F)cc2)C1` (configuration not stated): the inhibition stood at 4.69%.

`Cc1ccc(-n2cnc3cc(C(=O)NCCC4=CCCCC4)ccc32)cc1Cl`: the inhibition is -15.9%.

Take `CCc1ccccc1N(CC)C(=O)Cn1nc(Cc2ccncc2)c2ccccc2c1=O`: the inhibition stood at 4.68%. Next, `Cc1cccc(Cn2c(=O)n(Cc3ccccc3)c(=O)c3sc4ccccc4c32)c1`: -0.751%; `Cc1cccc(NC(=O)Nc2nnc(N3CCCC3)s2)c1`: -9.12%.
